{"source": "the supplement of paper PMC12217912", "parents": {"B1": {"name": "TEV protease; numbered along this chain (parent)", "chain": "MGESLFKGPRDYNPISSSICHLTNESDGHTTSLYGIGFGPFIITNKHLFRRNNGTLVVQSLHGVFKVKDTTTLQQHLVDGRDMIIIRMPKDFPPFPQKLKFREPQREERICLVTTNFQTKSMSSMVSDTSCTFPSGDGIFWKHWIQTKDGQCGSPLVSTRDGFIVGIHSASNFTNTNNYFTSVPKNFMELLTNQEAQQWVSGWRLNADSVLWGGHKVFMVKPEEPFQPVKEATQL"}}, "variants_of": "B1", "experiment": "raw area under fraction-flipped curve 0-4 h after induction (AUC4h, not background-subtracted), DNA-recorder readout of cleavage of the substrate (dimensionless); higher = more cleavage of the substrate by the protease variant", "settings": "temperature: 34 °C; time window: 0-4 h after rhamnose induction", "note": "The list shows a part of the results. The full chains were built here from the parent and the listed change. Inactive controls read about 0.05.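 Further: Bxb1 expression induced with 0.2% (w/v) L-rhamnose at OD600 near 0.5, cultures sampled hourly, flipped fraction per protease–substrate barcode pair counted by paired-end Illumina sequencing.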"}
{"variant": "MGESLFKGPRDYNPISSSICHLTNESDGHTTSLYGIGFGPFIITNKHLFRRNNGTLVVQSLHGVFKVKDTTTLQQHLVDGRDMIIIRMPKDFPPFPQKLKFREPQREERICLVTTNFQTKSMSSMVSDTSCTFPSGDGIFWKHWIQTKDGQCGSPLVSTRDGFIVGIHSASNFTNTNNYFTSVPKNFMELLTNQEAQQWVSGWRLNADSVLWGGHKVFMVKPEGPFQPVKEATQL", "note": "[E224G]", "values": [{"measurement": "area with substrate ENLDFQS", "value": 0.0599}, {"measurement": "area with substrate ENLEFQS", "value": 0.0578}, {"measurement": "area with substrate ENLGFQS", "value": 0.0685}, {"measurement": "area with substrate ENLHFQS", "value": 0.0618}, {"measurement": "area with substrate ENLIFQS", "value": 0.0925}, {"measurement": "area with substrate ENLLFQS", "value": 0.0758}, {"measurement": "area with substrate ENLNFQS", "value": 0.0684}, {"measurement": "area with substrate ENLPFQS", "value": 0.0483}, {"measurement": "area with substrate ENLRFQS", "value": 0.0746}, {"measurement": "area with substrate ENLSFQS", "value": 0.0617}, {"measurement": "area with substrate ENLWFQS", "value": 0.0548}]}
{"variant": "MGESLFKGPRDYNPISSSICHLTNESDGHTTSLYGIGFGPFIITNKHLFRRNNGTLVVQSLHGVFKVKDTTTLQQHLVDGRDMIIIRMPKDFPPFPQKLKFREPQREERICLVTTNFQTKSMSSMVSDTSCTFPSGDGIFWKHWIQTKDGQCGSPLVSTRDGFIVGIHSASNFTNTNNYFTSVPKNFMELLTNQEAQQWVSGWRLNADSVLWGGHKVFMVGPEEPFQPVKEATQL", "note": "[K221G]", "values": [{"measurement": "area with substrate ENLDFQS", "value": 0.0683}, {"measurement": "area with substrate ENLEFQS", "value": 0.11}, {"measurement": "area with substrate ENLFFQS", "value": 0.0785}, {"measurement": "area with substrate ENLHFQS", "value": 0.0661}, {"measurement": "area with substrate ENLKFQS", "value": 0.0777}, {"measurement": "area with substrate ENLLFQS", "value": 0.0543}, {"measurement": "area with substrate ENLNFQS", "value": 0.0643}, {"measurement": "area with substrate ENLWFQS", "value": 0.0583}]}
{"variant": "MGESLFKGPRDYNPISSSICHLTNESDGHTTSLYGIGFGPFIITNKHLFRRNNGTLVVQSLHGVFKVKDTTTLQQHLVDGRDMIIIRMPKDFPPFPQKLKFREPQREERICLVTTNFQTKSMSSMVSDTSCTFPSGDGIFWKHWIQTKDGQCGSPLVSTRDGFIVGIHSASNFTNTNNYFTSVPKNFMELLTNQEAQQWVSGWRLNADSVLWGGHKVFMVWPEEPFQPVKEATQL", "note": "[K221W]", "values": [{"measurement": "area with substrate ENLDFQS", "value": 0.0531}, {"measurement": "area with substrate ENLFFQS", "value": 0.059}, {"measurement": "area with substrate ENLGFQS", "value": 0.075}, {"measurement": "area with substrate ENLIFQS", "value": 0.0615}, {"measurement": "area with substrate ENLKFQS", "value": 0.0871}, {"measurement": "area with substrate ENLNFQS", "value": 0.0617}, {"measurement": "area with substrate ENLQFQS", "value": 0.064}, {"measurement": "area with substrate ENLRFQS", "value": 0.0784}, {"measurement": "area with substrate ENLSFQS", "value": 0.0529}, {"measurement": "area with substrate ENLVFQS", "value": 0.0839}]}
{"variant": "MGESLFKGPRDYNPISSSICHLTNESDGHTTSLYGIGFGPFIITNKHLFRRNNGTLVVQSLHGVFKVKDTTTLQQHLVDGRDMIIIRMPKDFPPFPQKLKFREPQREERICLVTTNFQTKSMSSMVSDTSCTFPSGDGIFWKHWIQTKDGQCGSPLVSTRDGFIVGIHSASNFTNTNNYFTSVPKNFMELLTNQEAQQWVSGWRLNADSVLWGGHKVFNVKPEEPFQPVKEATQL", "note": "[M219N]", "values": [{"measurement": "area with substrate ENLDFQS", "value": 0.0675}, {"measurement": "area with substrate ENLFFQS", "value": 0.0636}, {"measurement": "area with substrate ENLIFQS", "value": 0.0523}, {"measurement": "area with substrate ENLLFQS", "value": 0.0503}, {"measurement": "area with substrate ENLQFQS", "value": 0.0587}, {"measurement": "area with substrate ENLVFQS", "value": 0.0895}, {"measurement": "area with substrate ENLWFQS", "value": 0.0683}]}
{"variant": "MGESLFKGPRDYNPISSSICHLTNESDGHTTSLYGIGFGPFIITNKHLFRRNNGTLVVQSLHGVFKVKDTTTLQQHLVDGRDMIIIRMPKDFPPFPQKLKFREPQREERICLVTTNFQTKSMSSMVSDTSCTFPSGDGIFWKHWIQTKDGQCGSPLVSTRDGFIVGIHSASNFTNTNNYFTSVPKNFMELLTNQEAQQWVSPWRLNADSVLWGGHKVFMVKPEEPFQPVKEATQL", "note": "[G202P]", "values": [{"measurement": "area with substrate ENLDFQS", "value": 0.0616}, {"measurement": "area with substrate ENLEFQS", "value": 0.0723}, {"measurement": "area with substrate ENLFFQS", "value": 0.0619}, {"measurement": "area with substrate ENLHFQS", "value": 0.0601}, {"measurement": "area with substrate ENLKFQS", "value": 0.0671}, {"measurement": "area with substrate ENLNFQS", "value": 0.0528}, {"measurement": "area with substrate ENLQFQS", "value": 0.0687}, {"measurement": "area with substrate ENLRFQS", "value": 0.0567}, {"measurement": "area with substrate ENLTFQS", "value": 0.055}, {"measurement": "area with substrate ENLWFQS", "value": 0.0544}]}
{"variant": "MGESLFKGPRDYNPISSSICHLTNESDGHTTSLYGIGFGPFIITNKHLFRRNNGTLVVQSLHGVFKVKDTTTLQQHLVDGRDMIIIRMPKDFPPFPQKLKFREPQREERICLVTTNFQTKSMSSMVSDTSCTFPSGDGIFWKHWIQTKDGQCGSPLVSTRDGFIVGIHSASNFTNTNNYFTSVPKNFMELLTNQEAQQWVSGWRTNADSVLWGGHKVFMVKPEEPFQPVKEATQL", "note": "[L205T]", "values": [{"measurement": "area with substrate ENLDFQS", "value": 0.0574}, {"measurement": "area with substrate ENLMFQS", "value": 0.044}, {"measurement": "area with substrate ENLNFQS", "value": 0.0749}]}
{"variant": "MGESLFKGPRDYNPISSSICHLTNESDGHTTSLYGIGFGPFIITNKHLFRRNNGTLVVQSLHGVFKVKDTTTLQQHLVDGRDMIIIRMPKDFPPFPQKLKFREPQREERICLVTTNFQTKSMSSMVSDTSCTFPSGDGIFWKHWIQTKDGQCGSPLVSTRDGFIVGIHSASNFTNTNNYFTSVPKNFMELLTNYEAQQWVSGWRLNADSVLWGGHKVFMVKPEEPFQPVKEATQL", "note": "[Q194Y]", "values": [{"measurement": "area with substrate ENLDFQS", "value": 0.0529}, {"measurement": "area with substrate ENLEFQS", "value": 0.0891}, {"measurement": "area with substrate ENLFFQS", "value": 0.0796}, {"measurement": "area with substrate ENLHFQS", "value": 0.0617}, {"measurement": "area with substrate ENLNFQS", "value": 0.0645}, {"measurement": "area with substrate ENLPFQS", "value": 0.0443}, {"measurement": "area with substrate ENLQFQS", "value": 0.0533}, {"measurement": "area with substrate ENLRFQS", "value": 0.0862}, {"measurement": "area with substrate ENLSFQS", "value": 0.0656}]}
{"variant": "MGESLFKGPRDYNPISSSICHLTNESDGHTTSLYGIGFGPFIITNKHLFRRNNGTLVVQSLHGVFKVKDTTTLQQHLVDGRDMIIIRMPKDFPPFPQKLKFREPQREERICLVTTNFQTKSMSSMVSDTSCTFPSGDGIFWKHWIQTKDGQCGSPLVSTRDGFIVGIHSASNFTNTNNYFTSVPKNFMELLTNQEAQQWVSGWRLNADSHLWGGHKVFMVKPEEPFQPVKEATQL", "note": "[V210H]", "values": [{"measurement": "area with substrate ENLDFQS", "value": 0.0758}, {"measurement": "area with substrate ENLEFQS", "value": 0.0674}, {"measurement": "area with substrate ENLFFQS", "value": 0.0633}, {"measurement": "area with substrate ENLGFQS", "value": 0.0675}, {"measurement": "area with substrate ENLHFQS", "value": 0.062}, {"measurement": "area with substrate ENLIFQS", "value": 0.0688}, {"measurement": "area with substrate ENLNFQS", "value": 0.0351}, {"measurement": "area with substrate ENLPFQS", "value": 0.0699}, {"measurement": "area with substrate ENLRFQS", "value": 0.0506}, {"measurement": "area with substrate ENLSFQS", "value": 0.0702}, {"measurement": "area with substrate ENLVFQS", "value": 0.0675}, {"measurement": "area with substrate ENLWFQS", "value": 0.0583}]}
{"variant": "MGESLFKGPRDYNPISSSICHLTNESDGHTTSLYGIGFGPFIITNKHLFRRNNGTLVVQSLHGVFKVKDTTTLQQHLVDGRDMIIIRMPKDFPPFPQKLKFREPQREERICLVTTNFQTKSMSSMVSDTSCTFPSGDGIFWKHWIQTKDGQCGSPLVSTRDGFIVGIHSASNFTNTNNYFTSVPKNFMELLTNQEAQQWVSGWRLNADSRLWGGHKVFMVKPEEPFQPVKEATQL", "note": "[V210R]", "values": [{"measurement": "area with substrate ENLDFQS", "value": 0.0693}, {"measurement": "area with substrate ENLFFQS", "value": 0.0648}, {"measurement": "area with substrate ENLGFQS", "value": 0.0653}, {"measurement": "area with substrate ENLHFQS", "value": 0.0439}, {"measurement": "area with substrate ENLKFQS", "value": 0.0617}, {"measurement": "area with substrate ENLLFQS", "value": 0.0627}, {"measurement": "area with substrate ENLMFQS", "value": 0.0672}, {"measurement": "area with substrate ENLNFQS", "value": 0.0671}, {"measurement": "area with substrate ENLPFQS", "value": 0.0411}, {"measurement": "area with substrate ENLQFQS", "value": 0.069}, {"measurement": "area with substrate ENLRFQS", "value": 0.0596}, {"measurement": "area with substrate ENLVFQS", "value": 0.0571}, {"measurement": "area with substrate ENLWFQS", "value": 0.0506}]}
{"variant": "MGESLFKGPRDYNPISSSICHLTNESDGHTTSLYGIGFGPFIITNKHLFRRNNGTLVVQSLHGVFKVKDTTTLQQHLVDGRDMIIIRMPKDFPPFPQKLKFREPQREERICLVTTNFQTKSMSSMVSDTSCTFPSGDGIFWKHWIQTKDGQCGSPLVSTRDGFIVGIHSASNFTNTNNYFTSVPKNFMELLTNQEAQQWVSGWRLNADSVLWGGHKVFMVKPEENFQPVKEATQL", "note": "[P225N]", "values": [{"measurement": "area with substrate ENLDFQS", "value": 0.0542}, {"measurement": "area with substrate ENLEFQS", "value": 0.0544}, {"measurement": "area with substrate ENLFFQS", "value": 0.0873}, {"measurement": "area with substrate ENLGFQS", "value": 0.0657}, {"measurement": "area with substrate ENLHFQS", "value": 0.072}, {"measurement": "area with substrate ENLIFQS", "value": 0.0714}, {"measurement": "area with substrate ENLKFQS", "value": 0.0732}, {"measurement": "area with substrate ENLLFQS", "value": 0.0849}, {"measurement": "area with substrate ENLMFQS", "value": 0.0681}, {"measurement": "area with substrate ENLNFQS", "value": 0.0492}, {"measurement": "area with substrate ENLPFQS", "value": 0.0597}, {"measurement": "area with substrate ENLQFQS", "value": 0.0854}, {"measurement": "area with substrate ENLRFQS", "value": 0.0756}, {"measurement": "area with substrate ENLSFQS", "value": 0.006}, {"measurement": "area with substrate ENLVFQS", "value": 0.0897}, {"measurement": "area with substrate ENLWFQS", "value": 0.0708}]}
